Assay results published in PubChem BioAssay AID1508623 (National Center for Advancing Translational Sciences (NCATS), 2021).
The whole screen tested about 48,000 compounds, of which about 450 (0.94%) were called active. Roughly 19% stayed inconclusive and do not appear here. Calls follow the shape of the dose curve; as a rule, active = well fitted inhibition curve with a large enough effect; inconclusive = small, poorly fitted or top-dose-only effect; inactive = no such curve, though single readings can be large or run the other way. The list shows a part of the results.

Assay: Primary qHTS for Identification of Small Molecule Inhibitors of Huntingtin Promoter Activity; also: nearly all actives have a fitted effect of over 50% in size
Settings: HEK293 HTT promoter firefly luciferase reporter (activity 0% = vehicle and -100% = no light), 24 h; series mostly up to 57.5 µM; activity change, negative = inhibition: at the top concentration
Summary of the method: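 Firefly luciferase signal from promoter-reporter HEK293 cells was scaled between vehicle (0%) and zero RLU (-100%). Compounds were tested at final concentrations of up to 57.5 uM over 24 h at 37 degrees C. PTC124 at 50 uM final served as control inhibitor.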

SMILES | activity change, negative = inhibition
CCOc1ccc(N2CC(NC(=O)Cc3cccs3)CC2=O)cc1 (stereo not drawn) | inactive: 4.53%
COc1ccc(NC(=O)CC2C(=O)N(c3ccc(OC)cc3)C(=O)N2Cc2ccc(OC)c(OC)c2)cc1 (stereo not drawn) | inactive: 0.337%
CCOc1ccc(CCNC(=O)CCn2c(=O)c3cccn3c3ccc(F)cc32)cc1OCC | inactive: 0.816%
CCOc1ccc(NC(=O)CCc2c(C)nc3c4c(C)cc(C)nc4nn3c2C)cc1 | inactive: 19%
CN(Cc1ccccc1)c1ccc2cc(S(=O)(=O)N3CCCCC3)ccc2n1 | inactive: -17.4%
COc1ccc2cc(-c3nc(-c4ccc(N(C)C)cc4)no3)c(=O)oc2c1 | inactive: 5%
Cc1ccc(C)c(CSc2cn(CC(=O)N3CCCC3)c3ccccc23)c1 | inactive: -3.52%
NC(=O)c1ccc(I)c([N+](=O)[O-])c1 | inactive: 26.2%
COc1cc(NC(=O)CSc2cc(=O)n(C)c3ccccc23)cc(OC)c1OC | inactive: -41%
CC(NCc1ccc2c(c1)n(C)c(=O)n2C)c1ccccc1 (stereo not drawn) | inactive: -13.2%
Cc1ccc(-c2cn3c(n2)sc2cc(C(=O)NC4CCCCCC4)ccc23)cc1 | inactive: 22.8%
COCCCNC(=O)C1CCN(Cc2cc3ccccc3n2Cc2cccc(Cl)c2)CC1 | inactive: -4.79%
Cc1cc(C)n2nc(CNC(=O)c3cccc(N(C)C)c3)nc2n1 | inactive: 47.3%
CCC12CN3CC(CC)(CN(C1)C3c1c[nH]c3ccccc13)C2=O (stereo not drawn) | inactive: -26.1%
COc1ccc(Br)cc1CNC(=O)C1CCN(c2nnc(-n3cccc3CNc3ccc(C)cc3)s2)CC1 | inactive: -30.7%
CCn1cc(C(=O)N(C)c2cc(C)ccc2C)c2cc(OC)c(OC)cc2c1=O | inactive: -11.6%
COc1cc2c(C(=O)N3CCN(c4ccc(F)cc4)CC3)cn(CC(C)C)c(=O)c2cc1OC | inactive: -7.04%
CCOc1ccccc1NC(=O)C1CCCN(S(=O)(=O)c2cccs2)C1 (stereo not drawn) | inactive: -19.9%
COc1ccccc1Cc1nc2ccccc2nc1SCC(=O)N1CCCCC1 | inactive: -21.1%
COc1ccc(NC(=O)c2sc3nc4n(c(=O)c3c2C)CCC4)c(OC)c1 | inactive: -5.51%
COc1ccc(C(=O)Nc2cccc(OCc3cc(=O)n4c5c(sc4n3)CCCC5)c2)cc1OC | inactive: 1.99%
CCc1ccc(NC(=O)Cn2c(=O)n(Cc3ccc(C)cc3)c(=O)c3cccnc32)cc1 | inactive: -0.318%
Cc1ccccc1C(=O)Nc1nnc(S(=O)(=O)N2CCc3ccccc32)s1 | inactive: 2.73%
O=C(CCS(=O)(=O)c1cc(Br)cc2c1N(C(=O)C1CC1)CC2)N1CCN(c2ccccc2)CC1 | inactive: -4.14%

SMILES | activity change, negative = inhibition
CNC(=O)C1CCN(C(=O)N2CC(C)Oc3ccc(Cl)cc32)CC1 (stereo not drawn) | inactive: -2.6%
CCOC(=O)C1CCCN(C(=O)c2ccccc2NC(=O)c2nsc3ccccc23)C1 (stereo not drawn) | inactive: 6.76%
CCOc1ccc(C2CC(=O)c3c([nH]c(C(=O)OCCOc4ccccc4)c3C)C2)cc1 (stereo not drawn) | inactive: -30.8%
Cc1nnc2c3ccccc3nc(N3CCN(c4ccccc4)CC3)n12 | inactive: -26.3%
O=C(c1ccc2c(c1)N(Cc1cccc(Cl)c1)C(=O)c1ccccc1S2(=O)=O)N1CCCC1 | inactive: -39.3%
N#Cc1c(-c2ccccc2)cc(-c2ccccc2)nc1SCC(O)CS(=O)(=O)Cc1ccccc1 (stereo not drawn) | inactive: -33.2%
O=C(Cn1cc(SCc2ccc(F)cc2)c2ccccc21)N1CCCCCC1 | inactive: -11.8%
O=C(CCc1ccccc1)N(Cc1cccnc1)c1nc2ccc(F)cc2s1 | inactive: -13%
CCN(CC)C(=O)CSc1nc2c(c(=O)n(C)c(=O)n2C)n1Cc1ccccc1 | inactive: 14.4%
Cc1ccc2c(CNC3CCCC3)c(C(=O)O)n(Cc3ccc(F)cc3)c2c1 | inactive: -14.1%
CN(C(=O)CSc1nc2ccccc2n1CC(=O)N(C)C1CCCCC1)c1ccccc1 | inactive: -0.198%
Cc1cccc(NC(=O)CN2C(=O)CCn3nc(-c4cccn4C)cc32)c1C | inactive: -2.9%
COc1cccc(NC(=O)Nc2ccc3nc(N4CCN(C)CC4)cc(C)c3c2)c1 | inactive: 8.92%
CCCCNC(=O)CCn1c(=O)c2ccccc2n(Cc2cccc(Cl)c2)c1=O | inactive: -8.55%
O=C(CSc1nc2ccsc2c(=O)n1-c1ccc(Br)cc1)NCc1ccccc1 | inactive: -15.3%
O=C(CSc1nnc2scc(-c3ccccc3)n12)Nc1ccc(Cl)cc1 | inactive: -5.15%
CCOc1ccc(CNC(=O)CCn2c(=O)c3cccn3c3ccc(F)cc32)cc1 | inactive: -8.24%
CCOC(=O)c1ccc(NC(=O)c2ccc(CN3C(=O)CCn4nc(C)cc43)cc2)cc1 | inactive: -14%
O=C(NCc1nc2ccccc2[nH]1)c1cccc(Cl)c1 | inactive: 0%
O=C(Cn1c(=O)c2ccccc2n2nncc12)Nc1cccc(F)c1 | inactive: -6.13%
COc1ccc(NC(=O)NCCn2nnc3cc(S(=O)(=O)N(C)C)ccc32)cc1 | inactive: -17.8%
Cc1ccccc1Cn1cnc2nc3c(cc2c1=O)CC(C)CC3 (stereo not drawn) | inactive: -10.2%
CCc1cccc(C)c1NC(=O)CCCn1nc(C)c2sc3ccccc3c2c1=O | inactive: -0.933%
Cc1ccc(Cl)cc1NC(=O)CCn1c(=O)c2cccn2c2cccnc21 | inactive: -0.308%
